# Source: PubChem BioAssay AID1346428 (National Center for Advancing Translational Sciences (NCATS), 2018)
# Where “and” joins values, the source holds several entries; their conditions need not be identical. Identical values can stand only once. In all, about 48,000 compounds went through this assay and about 1,200 (2.5%) were called active. Roughly 2% stayed inconclusive and do not appear here.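 How the source made its calls: active means activation of at least 60% and not above a set upper limit (about 1 call in 100 departs from these limits); inconclusive means activation of 40% to 60%, or above that upper limit; inactive means activation under 40%.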 This is one part of the list.
# Target: Probable G-protein coupled receptor 32 (Homo sapiens) (UniProt O75388)
# Assay: qHTS for Agonists of Human Resolvin D1 Receptor DRV1
# Settings: CHO-K1 GPR32 beta-arrestin PathHunter luminescence, 90 min; at 76.9 µM; stronger effect = higher value; zero percent set by DMSO-only wells
# How it was run: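 Using DMSO wells as EC0, agonist-induced signal was taken as chemiluminescence from beta-Gal reconstituted upon beta-arrestin recruitment to GPR32 in CHO-K1 cells after 90 min compound treatment.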
# Sequence of UniProt O75388 (O75388 whole entry, looked up): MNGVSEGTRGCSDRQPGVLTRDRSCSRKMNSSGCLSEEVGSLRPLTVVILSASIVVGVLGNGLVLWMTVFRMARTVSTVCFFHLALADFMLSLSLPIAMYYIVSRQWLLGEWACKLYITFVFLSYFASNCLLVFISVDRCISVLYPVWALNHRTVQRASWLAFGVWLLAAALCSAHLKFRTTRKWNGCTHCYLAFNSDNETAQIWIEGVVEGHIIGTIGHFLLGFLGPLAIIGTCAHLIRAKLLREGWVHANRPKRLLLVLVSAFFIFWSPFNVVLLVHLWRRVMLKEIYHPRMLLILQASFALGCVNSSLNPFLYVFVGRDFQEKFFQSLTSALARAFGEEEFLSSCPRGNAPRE
row,Structure (SMILES),activation
1,Cc1ccc(C)c(CN2C(=O)C3(c4ccccc42)N(c2ccc(Cl)cc2)C(=O)CS3(=O)=O)c1 (configuration not stated),inactive: -6.23%
2,COc1ccc(CCNC(=O)C2CCN(c3nc4ccccc4nc3C(F)(F)F)CC2)c(OC)c1,inactive: 6.23%
3,CCc1ccc(NS(=O)(=O)c2c(C)nc3sc(CC)nn3c2=O)cc1,inactive: 13.9%
4,Cc1cccc(NC(=O)CSc2nc(-c3ccccc3Cl)nc3c2Cc2c(CO)cnc(C)c2O3)c1C,inactive: -13.6%
5,COc1ccc(CCNc2nc3c(-c4cccc(F)c4)nnn3c3ccccc23)cc1OC,inactive: -2.43%
6,CC1CCN(c2nc3c(S(=O)(=O)c4ccc(Cl)cc4)nnn3c3ccsc23)CC1,inactive: 1%
7,CC(=O)N1c2ccccc2CC1C(=O)NCc1cccc(Cl)c1 (configuration not stated),inactive: 7.47%
8,CC(=O)OCC(=O)[C@@]1(O)CC[C@H]2[C@@H]3CCC4=CC(=O)CC[C@]4(C)[C@H]3C(=O)C[C@@]21C,inactive: 10% and inactive: -1.61%
9,COc1ccc(-c2cc(C)no2)cc1S(=O)(=O)N1CCN(c2ccccc2F)CC1,inactive: -20.8%
10,CCOc1cccc(C2CC(=O)Nc3cc4c(cc32)OCCO4)c1 (configuration not stated),inactive: -6.15%
11,CCc1ccccc1NC(=O)c1ccc(CN2C(=O)CCn3nc(C)cc32)cc1,inactive: -14.2%
12,COCCNC(=O)C1CCN(c2nc3ccccc3nc2C(F)(F)F)CC1,inactive: -18.4%
13,Cc1ccccc1NC(=O)CSc1cn(CC(=O)N(C(C)C)C(C)C)c2ccccc12,inactive: -12.8%
14,COc1cc2c(cc1OC)C(COc1ccc3c(C)cc(=O)oc3c1)N(C(=O)c1ccccc1F)CC2 (configuration not stated),inactive: -1.19%
15,COc1cc(C(=O)N2CCOCC2)cc(OC)c1OC,inactive: 2.31%
16,COc1cc2c(cc1OC)n(Cc1ccc([N+](=O)[O-])cc1)c(=O)n1nc(-c3ccccc3)nc21,inactive: -5.11%
17,Cc1cccc(NC(=O)Cn2c(=O)ccc3cc(S(=O)(=O)N4CCCC4)ccc32)c1C,inactive: 22.5%
18,CC(=O)c1ccc(NC(=O)C2CCC(CNS(=O)(=O)c3cccs3)CC2)cc1 (configuration not stated),active: 108%
19,COc1cccc(Cc2nc3ccccc3nc2SCC(=O)NCc2ccc(C)cc2)c1,inactive: -10.8%
20,COc1ccc(CCNC(=O)c2ccc3c(c2)nc2n3CCC(C)C2)cc1OC (configuration not stated),inactive: -8.9%
21,CCOC(=O)c1noc2nc(C)n(Cc3cccc(C#N)c3)c(=O)c12,inactive: -19.2%
22,CNCC[C@H](Oc1ccc(C(F)(F)F)cc1)c1ccccc1,inactive: -3.21%
23,CCOc1ccc(NC(=O)N2CCN(Cc3cc(=O)n4nc(-c5ccc(OC)cc5)sc4n3)CC2)cc1,inactive: -2.83%
24,COc1ccc(N2C(=O)CS(=O)(=O)C23C(=O)N(Cc2ccc(C)cc2)c2ccccc23)cc1Cl (configuration not stated),inactive: -30.7%
25,O=C(NCc1ccc(F)cc1)c1ccc2c(c1)nnn2C1CCCC1,inactive: -3.23%
26,CCOC(=O)c1[nH]c(C)c(CCC(=O)NCc2ccc(OC)cc2)c1C,inactive: -12.6%

row,Structure (SMILES),activation
1,Cc1c(NC(=O)c2cc(-c3ccc(Cl)cc3)on2)c(=O)n(-c2ccccc2)n1C,inactive: 17.7%
2,Cc1ccccc1-c1nnc(SCC(=O)N(C)C2CCCCC2)o1,inactive: -19.7%
3,CCNC(=O)c1ccc(CSc2nc3ccncc3n2Cc2ccc(F)cc2)cc1,inactive: -1.42%
4,CCN(C(=O)Cn1cnc2onc(-c3ccc(F)cc3)c2c1=O)c1cc(C)ccc1C,inactive: 2.64%
5,CO[C@]12C[C@@H](COC(=O)c3cncc(Br)c3)CN(C)[C@@H]1Cc1cn(C)c3cccc2c13,inactive: 0.983%
6,CCn1c(C(=O)NCc2cc(Br)ccc2OC)cc2oc3ccccc3c21,inactive: -18.9%
7,Cc1cccc(CCNC(=O)CN(c2ccc(C(C)C)cc2)S(=O)(=O)c2c(C)nn(C)c2C)c1,inactive: -19.2%
8,Cc1ccc(NC(=O)N2CCN(c3cc(-c4noc(C)n4)ccc3C)CC2)c(C)c1,inactive: -0.816%
9,CCCCC(=O)O[C@]1(C(=O)CO)[C@@H](C)C[C@H]2[C@@H]3CCC4=CC(=O)C=C[C@]4(C)[C@@]3(F)[C@@H](O)C[C@@]21C,inactive: 15.3%
10,CCCCNS(=O)(=O)c1ccc(C)c(-c2nnc3c4ccccc4c(C)nn23)c1,inactive: -13.5%
11,Cc1ccc(CN2CCN(C3CCN(C(=O)Nc4ccc(C)cc4Cl)CC3)C(=O)C2=O)cc1,inactive: -17.5%
12,CC(=O)N1CCc2cc(CNC(=O)c3ccccc3Br)ccc21,inactive: -7.43%
13,CNS(=O)(=O)c1cn(CC(=O)Nc2ccc(C(C)=O)cc2)cc1S(=O)(=O)NC,inactive: -4.9%
14,CC(=O)N1CCc2cc(S(=O)(=O)NC(Cc3ccccc3)C(=O)NCc3ccc(C)cc3)ccc21 (configuration not stated),inactive: 13%
15,O=C(NCc1cccs1)C1CCN(C(=O)N2CCOc3ccc(Cl)cc32)CC1,inactive: -2.11%
16,O=C(Nc1ccc(Br)cc1)c1ccc(F)c(S(=O)(=O)N2CCc3ccccc32)c1,inactive: -9.21%
17,COc1ccc(CCNC(=O)C2CCN(S(=O)(=O)c3c(C)noc3/C=C/c3ccc(C)cc3)CC2)cc1OC,inactive: 3.61%
18,Cc1ccc(S(=O)(=O)C(CNC(=O)C(=O)NCc2ccccc2C)c2cccs2)cc1 (configuration not stated),inactive: -3.32%
19,CCOC(=O)c1ccc(NC(=O)CCn2ccc(C)n2)cc1,inactive: -4.17%
20,CC(C)OC(=O)c1c(-c2ccccc2)c(-c2ccccc2)nn(C)c1=O,inactive: -15%
21,CC(C)CCN(C(=O)Nc1ccccc1)C(C)c1cccs1 (configuration not stated),inactive: -16.6%
22,Cc1cc(C)c(Cn2c(C3CC(=O)N(c4ccc(F)cc4)C3)nc3ccccc32)c(C)c1 (configuration not stated),inactive: -4.11%
23,COc1cccc(NC(=O)CSc2nc(=O)n(Cc3ccncc3)c3c2CCC3)c1,inactive: -14.1%
24,CCCN(CCC)CC(O)Cn1cc(/C=C/C(=O)c2ccc(Br)cc2)c2ccccc21 (configuration not stated),inactive: 6.73%
25,CCn1cc(C(=O)N(C)c2ccc(C(C)C)cc2)c2cc(OC)c(OC)cc2c1=O,inactive: 19.5%
26,Cc1ccc(CNC(=O)CCNS(=O)(=O)c2cccc3nsnc23)cc1,inactive: 11.2%
